From publication PMC12041881, “Tailored phenyl ureas eradicate drug-resistant Mycobacterium tuberculosis by targeting mycolic acid cell wall assembly” (Chemical Science, 2025)

Key:
Assay type in all cases: binding
[1] = target: probe-bound proteins in M. tuberculosis H37Ra cells (Mycobacterium tuberculosis, UniProt O33283); details: protein ephG (O33283); 5µM vs noUV
[2] = target: probe-bound proteins in M. tuberculosis H37Ra cells (Mycobacterium tuberculosis, UniProt O53368); details: protein sdhC (O53368); 5µM vs noUV
Chain of UniProt O53368 (O53368 whole entry): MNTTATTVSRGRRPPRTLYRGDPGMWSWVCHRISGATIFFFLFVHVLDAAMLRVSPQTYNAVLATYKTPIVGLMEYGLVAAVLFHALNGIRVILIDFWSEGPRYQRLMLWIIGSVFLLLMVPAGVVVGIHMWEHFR

[3] = target: probe-bound proteins in M. tuberculosis H37Ra cells (Mycobacterium tuberculosis, UniProt O53900); details: protein Rv0987 (O53900); 5µM vs noUV
Chain of UniProt O53900 (O53900 whole entry): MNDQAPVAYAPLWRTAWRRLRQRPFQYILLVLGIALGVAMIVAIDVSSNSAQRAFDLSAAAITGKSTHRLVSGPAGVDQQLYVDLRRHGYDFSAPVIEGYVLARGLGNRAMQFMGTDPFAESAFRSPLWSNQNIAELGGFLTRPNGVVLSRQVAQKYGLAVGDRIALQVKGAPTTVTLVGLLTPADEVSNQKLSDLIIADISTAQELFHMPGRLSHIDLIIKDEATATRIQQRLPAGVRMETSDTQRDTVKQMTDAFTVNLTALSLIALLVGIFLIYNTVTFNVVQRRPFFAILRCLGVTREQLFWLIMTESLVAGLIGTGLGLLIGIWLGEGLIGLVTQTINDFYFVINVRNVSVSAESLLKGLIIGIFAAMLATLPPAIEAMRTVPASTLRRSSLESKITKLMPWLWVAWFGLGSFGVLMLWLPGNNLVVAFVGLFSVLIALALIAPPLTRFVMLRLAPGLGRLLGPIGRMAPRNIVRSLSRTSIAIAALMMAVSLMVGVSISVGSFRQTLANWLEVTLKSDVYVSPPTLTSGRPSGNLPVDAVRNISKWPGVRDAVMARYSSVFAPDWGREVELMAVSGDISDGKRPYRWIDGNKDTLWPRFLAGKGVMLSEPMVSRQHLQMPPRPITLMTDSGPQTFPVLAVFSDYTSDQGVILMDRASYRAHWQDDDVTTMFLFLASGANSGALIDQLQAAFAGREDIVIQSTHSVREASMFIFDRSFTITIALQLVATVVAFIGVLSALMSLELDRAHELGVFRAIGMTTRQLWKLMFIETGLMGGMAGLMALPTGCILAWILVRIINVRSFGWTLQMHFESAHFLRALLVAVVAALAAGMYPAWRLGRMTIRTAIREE

[4] = target: probe-bound proteins in M. tuberculosis H37Ra cells (Mycobacterium tuberculosis, UniProt P96886); details: protein accE5 (P96886); 5µM vs noUV
Chain of UniProt P96886 (P96886 whole entry): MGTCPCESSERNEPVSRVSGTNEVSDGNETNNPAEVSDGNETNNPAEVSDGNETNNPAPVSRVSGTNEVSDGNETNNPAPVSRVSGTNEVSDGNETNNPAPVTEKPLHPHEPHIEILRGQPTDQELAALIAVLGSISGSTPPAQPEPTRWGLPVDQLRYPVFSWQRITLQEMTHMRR

[5] = target: probe-bound proteins in M. tuberculosis H37Ra cells (Mycobacterium tuberculosis, UniProt P9WG15); details: protein Rv2563 (P9WG15); 5µM vs noUV
Chain of UniProt P9WG15 (P9WG15 whole entry): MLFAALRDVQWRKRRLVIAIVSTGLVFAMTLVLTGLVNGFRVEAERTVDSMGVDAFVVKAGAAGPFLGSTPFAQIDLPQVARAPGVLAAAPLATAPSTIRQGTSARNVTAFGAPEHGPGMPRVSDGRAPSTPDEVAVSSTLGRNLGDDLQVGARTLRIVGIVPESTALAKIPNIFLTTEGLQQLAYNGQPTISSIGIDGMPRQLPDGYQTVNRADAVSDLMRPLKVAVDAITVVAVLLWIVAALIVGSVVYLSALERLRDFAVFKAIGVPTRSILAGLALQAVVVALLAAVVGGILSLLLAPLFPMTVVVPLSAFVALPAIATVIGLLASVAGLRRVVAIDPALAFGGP

[6] = target: probe-bound proteins in M. tuberculosis H37Ra cells (Mycobacterium tuberculosis, UniProt P9WG19); details: protein ftsX (P9WG19, Cell division protein FtsX); 5µM vs noUV
Chain of UniProt P9WG19 (P9WG19 whole entry): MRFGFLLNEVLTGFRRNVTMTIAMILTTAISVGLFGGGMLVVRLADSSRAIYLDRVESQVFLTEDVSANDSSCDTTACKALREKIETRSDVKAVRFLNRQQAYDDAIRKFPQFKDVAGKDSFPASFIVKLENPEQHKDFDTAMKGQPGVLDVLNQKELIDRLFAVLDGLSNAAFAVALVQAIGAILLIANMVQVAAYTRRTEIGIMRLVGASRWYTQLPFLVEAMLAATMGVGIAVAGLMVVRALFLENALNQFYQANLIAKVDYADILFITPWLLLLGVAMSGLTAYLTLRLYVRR

[7] = target: probe-bound proteins in M. tuberculosis H37Ra cells (Mycobacterium tuberculosis, UniProt P9WJY1); details: protein Rv0037c (P9WJY1, Uncharacterized MFS-type transporter Rv0037c); 5µM vs noUV
Chain of UniProt P9WJY1 (P9WJY1 whole entry): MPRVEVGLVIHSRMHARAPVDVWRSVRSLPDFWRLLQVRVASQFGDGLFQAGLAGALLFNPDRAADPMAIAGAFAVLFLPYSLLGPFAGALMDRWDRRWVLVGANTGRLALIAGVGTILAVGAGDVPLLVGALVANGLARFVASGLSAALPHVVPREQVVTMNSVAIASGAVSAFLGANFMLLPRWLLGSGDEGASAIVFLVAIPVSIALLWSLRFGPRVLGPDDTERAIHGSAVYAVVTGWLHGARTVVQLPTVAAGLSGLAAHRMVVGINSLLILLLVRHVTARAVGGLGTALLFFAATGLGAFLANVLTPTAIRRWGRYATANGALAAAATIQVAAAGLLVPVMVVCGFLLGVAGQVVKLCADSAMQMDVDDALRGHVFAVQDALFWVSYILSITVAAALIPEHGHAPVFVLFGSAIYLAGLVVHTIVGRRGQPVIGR

[8] = target: probe-bound proteins in M. tuberculosis H37Ra cells (Mycobacterium tuberculosis, UniProt P9WJY3); details: protein Rv1410c (P9WJY3, Probable triacylglyceride transporter Rv1410c); 5µM vs noUV
Chain of UniProt P9WJY3 (P9WJY3 whole entry): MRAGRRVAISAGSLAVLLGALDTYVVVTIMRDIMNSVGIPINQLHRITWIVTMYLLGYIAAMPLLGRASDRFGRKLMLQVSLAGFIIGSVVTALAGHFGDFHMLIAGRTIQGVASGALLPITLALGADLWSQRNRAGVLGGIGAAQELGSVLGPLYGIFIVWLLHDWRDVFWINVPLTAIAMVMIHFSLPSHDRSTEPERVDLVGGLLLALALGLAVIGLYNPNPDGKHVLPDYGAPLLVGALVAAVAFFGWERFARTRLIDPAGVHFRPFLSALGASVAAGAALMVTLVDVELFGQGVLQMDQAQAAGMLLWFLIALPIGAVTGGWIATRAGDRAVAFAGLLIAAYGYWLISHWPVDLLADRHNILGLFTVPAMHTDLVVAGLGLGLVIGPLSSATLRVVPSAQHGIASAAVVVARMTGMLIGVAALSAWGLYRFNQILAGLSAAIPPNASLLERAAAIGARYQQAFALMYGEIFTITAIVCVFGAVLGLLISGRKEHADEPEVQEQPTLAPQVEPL

[9] = target: probe-bound proteins in M. tuberculosis H37Ra cells (Mycobacterium tuberculosis, UniProt P9WL87); details: protein Rv2574 (P9WL87, Uncharacterized protein Rv2574); 5µM vs noUV
Chain of UniProt P9WL87 (P9WL87 whole entry): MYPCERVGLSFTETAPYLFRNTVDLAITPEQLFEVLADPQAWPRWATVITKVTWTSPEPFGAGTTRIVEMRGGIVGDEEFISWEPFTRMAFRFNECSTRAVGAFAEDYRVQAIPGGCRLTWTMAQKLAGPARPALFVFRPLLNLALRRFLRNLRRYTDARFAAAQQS

[10] = target: probe-bound proteins in M. tuberculosis H37Ra cells (Mycobacterium tuberculosis, UniProt P9WLD7); details: protein Rv2300c (P9WLD7, Probable metallo-hydrolase Rv2300c); 5µM vs noUV
Chain of UniProt P9WLD7 (P9WLD7 whole entry): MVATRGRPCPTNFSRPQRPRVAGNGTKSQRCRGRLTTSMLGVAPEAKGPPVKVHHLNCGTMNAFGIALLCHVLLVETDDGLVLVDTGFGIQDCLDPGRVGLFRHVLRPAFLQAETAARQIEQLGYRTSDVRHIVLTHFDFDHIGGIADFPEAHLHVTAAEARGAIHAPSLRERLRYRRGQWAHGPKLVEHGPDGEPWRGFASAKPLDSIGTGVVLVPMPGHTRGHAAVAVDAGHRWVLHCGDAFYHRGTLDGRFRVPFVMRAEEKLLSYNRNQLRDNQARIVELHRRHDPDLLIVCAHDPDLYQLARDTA

[11] = target: probe-bound proteins in M. tuberculosis H37Ra cells (Mycobacterium tuberculosis, UniProt P9WLY1); details: protein Rv1417 (P9WLY1, Uncharacterized protein Rv1417); 5µM vs noUV
Chain of UniProt P9WLY1 (P9WLY1 whole entry): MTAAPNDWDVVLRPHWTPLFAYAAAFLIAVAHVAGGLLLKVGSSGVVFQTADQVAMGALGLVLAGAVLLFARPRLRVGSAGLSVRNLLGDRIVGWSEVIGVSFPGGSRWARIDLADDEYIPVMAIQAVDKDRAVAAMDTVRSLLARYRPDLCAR

[12] = target: probe-bound proteins in M. tuberculosis H37Ra cells (Mycobacterium tuberculosis, UniProt P9WM75); details: protein Rv0085 (P9WM75, Uncharacterized protein Rv0085); 5µM vs noUV
Chain of UniProt P9WM75 (P9WM75 whole entry): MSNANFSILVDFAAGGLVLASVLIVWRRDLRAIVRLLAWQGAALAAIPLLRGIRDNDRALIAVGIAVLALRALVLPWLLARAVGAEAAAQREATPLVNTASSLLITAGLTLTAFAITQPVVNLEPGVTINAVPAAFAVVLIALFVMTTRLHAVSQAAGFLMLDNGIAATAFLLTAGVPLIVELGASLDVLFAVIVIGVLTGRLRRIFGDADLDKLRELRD

[13] = target: probe-bound proteins in M. tuberculosis H37Ra cells (Mycobacterium tuberculosis, UniProt P9WM93); details: protein Rv0034 (P9WM93, Uncharacterized protein Rv0034); 5µM vs noUV
Chain of UniProt P9WM93 (P9WM93 whole entry): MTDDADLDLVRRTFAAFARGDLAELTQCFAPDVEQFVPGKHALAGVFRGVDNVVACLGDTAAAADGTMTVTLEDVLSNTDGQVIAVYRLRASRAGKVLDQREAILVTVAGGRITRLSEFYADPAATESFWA

[14] = target: probe-bound proteins in M. tuberculosis H37Ra cells (Mycobacterium tuberculosis, UniProt P9WMZ9); details: protein Rv2181 (P9WMZ9, Polyprenol-phosphate-mannose-dependent alpha-(1-2)-phosphatidylinositol mannoside mannosyltransferase); 5µM vs noUV
Chain of UniProt P9WMZ9 (P9WMZ9 whole entry): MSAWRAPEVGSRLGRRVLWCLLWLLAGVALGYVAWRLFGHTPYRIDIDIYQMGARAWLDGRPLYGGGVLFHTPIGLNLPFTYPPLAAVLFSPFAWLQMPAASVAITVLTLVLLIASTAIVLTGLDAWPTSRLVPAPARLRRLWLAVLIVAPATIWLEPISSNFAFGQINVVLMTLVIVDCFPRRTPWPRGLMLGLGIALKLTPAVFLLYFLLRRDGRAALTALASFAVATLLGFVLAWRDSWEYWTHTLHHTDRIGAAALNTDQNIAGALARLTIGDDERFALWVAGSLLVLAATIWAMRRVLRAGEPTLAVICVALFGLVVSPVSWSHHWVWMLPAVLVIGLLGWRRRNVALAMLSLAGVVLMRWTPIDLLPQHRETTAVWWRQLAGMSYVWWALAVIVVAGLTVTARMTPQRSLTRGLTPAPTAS

[15] = target: probe-bound proteins in M. tuberculosis H37Ra cells (Mycobacterium tuberculosis, UniProt P9WP07); details: protein Rv2637 (P9WP07, Uncharacterized membrane protein Rv2637); 5µM vs noUV
Chain of UniProt P9WP07 (P9WP07 whole entry): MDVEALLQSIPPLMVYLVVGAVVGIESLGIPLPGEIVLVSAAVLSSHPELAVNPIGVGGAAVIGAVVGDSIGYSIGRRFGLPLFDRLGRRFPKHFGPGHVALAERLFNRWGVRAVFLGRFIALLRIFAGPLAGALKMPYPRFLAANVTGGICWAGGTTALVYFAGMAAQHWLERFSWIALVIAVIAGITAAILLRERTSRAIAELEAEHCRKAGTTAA

[16] = target: probe-bound proteins in M. tuberculosis H37Ra cells (Mycobacterium tuberculosis, UniProt P9WP09); details: protein Rv0364 (P9WP09, Uncharacterized membrane protein Rv0364); 5µM vs noUV
[17] = target: probe-bound proteins in M. tuberculosis H37Ra cells (Mycobacterium tuberculosis, UniProt P9WP15); details: protein ddn (P9WP15, Deazaflavin-dependent nitroreductase); 5µM vs noUV
Chain of UniProt P9WP15 (P9WP15 whole entry): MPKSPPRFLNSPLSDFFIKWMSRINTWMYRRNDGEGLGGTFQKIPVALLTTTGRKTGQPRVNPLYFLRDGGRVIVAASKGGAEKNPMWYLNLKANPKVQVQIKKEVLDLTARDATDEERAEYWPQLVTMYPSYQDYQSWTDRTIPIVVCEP

[18] = target: probe-bound proteins in M. tuberculosis H37Ra cells (Mycobacterium tuberculosis, UniProt P9WPM9); details: protein cyp135B1 (P9WPM9, Putative cytochrome P450 135B1); 5µM vs noUV
[19] = target: probe-bound proteins in M. tuberculosis H37Ra cells (Mycobacterium tuberculosis, UniProt P9WQ99); details: protein amiA2 (P9WQ99, Putative amidase AmiA2); 5µM vs noUV

Chain of UniProt O33283 (O33283 whole entry): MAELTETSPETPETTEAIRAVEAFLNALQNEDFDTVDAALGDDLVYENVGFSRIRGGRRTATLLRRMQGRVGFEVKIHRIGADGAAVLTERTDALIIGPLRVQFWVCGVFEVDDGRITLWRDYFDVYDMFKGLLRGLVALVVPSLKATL

C#CC1(NC(=O)Nc2ccc(N=[N+]=[N-])cc2)CCCCC1 [Compound 227-p1]
Student's T-test Difference DM-JB-68 -5µM_DM-JB-68 -5µM_noUV [1]: -0.1072 | Student's T-test Difference DM-JB-68 -5µM_DM-JB-68 -5µM_noUV [2]: -0.436 | Student's T-test Difference DM-JB-68 -5µM_DM-JB-68 -5µM_noUV [3]: -0.2913 | Student's T-test Difference DM-JB-68 -5µM_DM-JB-68 -5µM_noUV [4]: 0.275 | Student's T-test Difference DM-JB-68 -5µM_DM-JB-68 -5µM_noUV [5]: 0.6088 | Student's T-test Difference DM-JB-68 -5µM_DM-JB-68 -5µM_noUV [6]: 0.3732 | Student's T-test Difference DM-JB-68 -5µM_DM-JB-68 -5µM_noUV [7]: -0.4477 | Student's T-test Difference DM-JB-68 -5µM_DM-JB-68 -5µM_noUV [8]: 0.9543 | Student's T-test Difference DM-JB-68 -5µM_DM-JB-68 -5µM_noUV [9]: 0.135 | Student's T-test Difference DM-JB-68 -5µM_DM-JB-68 -5µM_noUV [10]: -0.2309 | Student's T-test Difference DM-JB-68 -5µM_DM-JB-68 -5µM_noUV [11]: 0.3491 | Student's T-test Difference DM-JB-68 -5µM_DM-JB-68 -5µM_noUV [12]: -1.275 | Student's T-test Difference DM-JB-68 -5µM_DM-JB-68 -5µM_noUV [13]: 0.3154 | Student's T-test Difference DM-JB-68 -5µM_DM-JB-68 -5µM_noUV [14]: 0.05102 | Student's T-test Difference DM-JB-68 -5µM_DM-JB-68 -5µM_noUV [15]: 0.06894 | Student's T-test Difference DM-JB-68 -5µM_DM-JB-68 -5µM_noUV [16]: 0.1089 | Student's T-test Difference DM-JB-68 -5µM_DM-JB-68 -5µM_noUV [17]: -0.278 | Student's T-test Difference DM-JB-68 -5µM_DM-JB-68 -5µM_noUV [18]: -0.4919 | Student's T-test Difference DM-JB-68 -5µM_DM-JB-68 -5µM_noUV [19]: 0.3344
